146 sequences from the BET-seq Pho4 binding data (Le et al. 2018) can be followed below.

Some of the results follow. These are noisy estimates, calculated here from bound and input reads.

In this assay the target is T1, Pho4 (S. cerevisiae) (UniProt P07270).
T1 sequence: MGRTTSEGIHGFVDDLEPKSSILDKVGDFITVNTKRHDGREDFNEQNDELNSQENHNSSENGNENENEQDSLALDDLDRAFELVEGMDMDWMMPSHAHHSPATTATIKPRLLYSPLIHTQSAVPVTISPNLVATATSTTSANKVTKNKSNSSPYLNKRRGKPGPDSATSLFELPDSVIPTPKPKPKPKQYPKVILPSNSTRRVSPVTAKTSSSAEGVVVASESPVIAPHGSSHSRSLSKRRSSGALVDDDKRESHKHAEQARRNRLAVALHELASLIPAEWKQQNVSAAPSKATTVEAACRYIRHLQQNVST
The assay can be described thus: relative binding free energy (BET-seq); higher = weaker binding. To be noted: reference: library average.
Turning to TAGAGCACGTGGGCGT, the “relative binding free energy” value was -0.26 kcal/mol. Regarding GGGGCCACGTGTCTAG, the “relative binding free energy” value came to 0.04 kcal/mol.

GGATTCACGTGGTCGA: the “relative binding free energy” value was found to be 0.33 kcal/mol.

Turning to TGTAGCACGTGCCGTG, the “relative binding free energy” value is -0.18 kcal/mol. Turning to GTGGACACGTGCTTTA, the “relative binding free energy” value was -0.02 kcal/mol.

GGGGGCACGTGAGCCG: the “relative binding free energy” value stood at 0.1 kcal/mol. Then TAGGGCACGTGCGATG, with -0.2 kcal/mol. Regarding GGTGACACGTGATGCG, the “relative binding free energy” value was 0.23 kcal/mol.

Consider TTGCTCACGTGTATGA, for which the “relative binding free energy” value is 0.15 kcal/mol. Turning to TGGTTCACGTGACTAT, the “relative binding free energy” value was 0.35 kcal/mol.

TTAATCACGTGCGTGT: the “relative binding free energy” value was 0.03 kcal/mol. Turning to TGTGGCACGTGCGGTA, the “relative binding free energy” value is -0.09 kcal/mol.

Consider CGCATCACGTGTGGGG, for which the “relative binding free energy” value was 0.28 kcal/mol.

TGAAGCACGTGCTGAT: the “relative binding free energy” value turned out to be 0.01 kcal/mol.

As to ACGGTCACGTGTTTTG, the “relative binding free energy” value was determined as 0.06 kcal/mol. For TGAGACACGTGGAGGC, the “relative binding free energy” value worked out at 0.02 kcal/mol. Take GTGCACACGTGGGGAG: the “relative binding free energy” value turned out to be 0.01 kcal/mol. Then GTGTGCACGTGAAAGG, with 0.15 kcal/mol; and GGGATCACGTGTTTGA, with 0.08 kcal/mol; and TGAGGCACGTGTGCTT, with -0.03 kcal/mol. For CGTATCACGTGTGTAG the value was 0.13 kcal/mol; for GTTAGCACGTGGGACT, -0.01 kcal/mol; for GTCATCACGTGTGTGT, 0.15 kcal/mol. On to TGGGGCACGTGGCCCG, for which the “relative binding free energy” value is -0.25 kcal/mol. Consider GTGGCCACGTGGTGGT, for which the “relative binding free energy” value was -0.01 kcal/mol. Take TACCGCACGTGGTGGG: the “relative binding free energy” value is -0.05 kcal/mol. On to TCTTGCACGTGTTATA, for which the “relative binding free energy” value was -0.06 kcal/mol. In the case of TCAGTCACGTGCTTGG, the “relative binding free energy” value worked out at 0.02 kcal/mol. GCTTGCACGTGAGGCG: the “relative binding free energy” value came out at 0.2 kcal/mol.

Regarding TAGTTCACGTGCGTGG, the “relative binding free energy” value came out at 0.09 kcal/mol. Then AATCACACGTGGGTGT, with -0.02 kcal/mol; and ATTTGCACGTGAGTAT, with 0.21 kcal/mol.

Turning to AGGTGCACGTGATCTG, the “relative binding free energy” value was found to be 0.05 kcal/mol. For CTTATCACGTGGTTAG the value was 0.13 kcal/mol; for CAGTGCACGTGTGGCT, 0.02 kcal/mol; for GGTCACACGTGTTGGC, 0.17 kcal/mol. With CTTTTCACGTGGTGGG, the “relative binding free energy” value came to 0.14 kcal/mol.

Take GTTGGCACGTGTCGTT: the “relative binding free energy” value turned out to be 0.04 kcal/mol. For GGCATCACGTGTTTTA the value was 0.24 kcal/mol. For the sequence TTAGTCACGTGGGTAC, the “relative binding free energy” value was found to be 0.08 kcal/mol. Then TGCGGCACGTGATTTA, with 0 kcal/mol. As to TTATGCACGTGGCCGT, the “relative binding free energy” value was -0.1 kcal/mol. As to TGAGGCACGTGTAACG, the “relative binding free energy” value was 0.04 kcal/mol. Consider ATTTACACGTGTTTCT, for which the “relative binding free energy” value is -0.03 kcal/mol. For ATTTACACGTGCAGTG, the “relative binding free energy” value turned out to be 0.19 kcal/mol.

As for AGTTGCACGTGCTTTA, the “relative binding free energy” value is -0.12 kcal/mol.

CGTGTCACGTGTGTTA: the “relative binding free energy” value was 0.14 kcal/mol. With GATAGCACGTGATAGT, the “relative binding free energy” value was 0.13 kcal/mol.

As to GTGGGCACGTGCGATA, the “relative binding free energy” value was -0.14 kcal/mol. Then TTTAGCACGTGAGTGG, with 0.15 kcal/mol; and TAACGCACGTGTGGGA, with -0.02 kcal/mol. Take CGTGGCACGTGCTGAG: the “relative binding free energy” value was -0.16 kcal/mol. Then TTGTTCACGTGCGCGT, with 0.16 kcal/mol; and ATTATCACGTGCGTTG, with 0.03 kcal/mol. As to TAAGACACGTGAGGGT, the “relative binding free energy” value amounted to 0.16 kcal/mol. As for AGGATCACGTGTATTA, the “relative binding free energy” value is 0.07 kcal/mol. As to GAAATCACGTGGTTAG, the “relative binding free energy” value is 0.26 kcal/mol. For the sequence GGTTGCACGTGTCGGT, the “relative binding free energy” value turned out to be 0.01 kcal/mol. Turning to ATAGGCACGTGGTATA, the “relative binding free energy” value was -0.18 kcal/mol. For the sequence CAGAGCACGTGTGTTG, the “relative binding free energy” value worked out at 0.04 kcal/mol. As to CTTTACACGTGTTTAT, the “relative binding free energy” value is -0.1 kcal/mol. Consider AGGCTCACGTGGTCGG, for which the “relative binding free energy” value is 0.15 kcal/mol. As to AAGAGCACGTGGGTAA, the “relative binding free energy” value is -0.23 kcal/mol. ATTTTCACGTGGTTGC: the “relative binding free energy” value came to 0.28 kcal/mol. As to ATGTGCACGTGACAGT, the “relative binding free energy” value is 0.16 kcal/mol.

For CATTTCACGTGGTTTA, the “relative binding free energy” value turned out to be 0.3 kcal/mol.

ATCATCACGTGTGTAT: the “relative binding free energy” value came out at 0.05 kcal/mol. As for TCTTGCACGTGGTGAT, the “relative binding free energy” value was -0.1 kcal/mol. Turning to CAAGGCACGTGGGGTA, the “relative binding free energy” value is -0.2 kcal/mol.

Regarding GTTAGCACGTGGTACG, the “relative binding free energy” value was -0.14 kcal/mol.

Turning to CGTTCCACGTGGGGGA, the “relative binding free energy” value is -0.11 kcal/mol. For the sequence ATTTACACGTGGGGAG, the “relative binding free energy” value was 0.06 kcal/mol.

Consider AAGCGCACGTGGGGGA, for which the “relative binding free energy” value was -0.2 kcal/mol.

In the case of TGTCTCACGTGTTTAT, the “relative binding free energy” value stood at 0.19 kcal/mol.

On to GTTTTCACGTGTGAGC, for which the “relative binding free energy” value stood at 0.36 kcal/mol.

Take GGTTTCACGTGTCTCT: the “relative binding free energy” value was determined as 0.38 kcal/mol. In the case of GTAGACACGTGTCATG, the “relative binding free energy” value amounted to 0.07 kcal/mol. Turning to AATGACACGTGTGCGG, the “relative binding free energy” value was found to be 0.11 kcal/mol.

On to TGTAGCACGTGCGGTC, for which the “relative binding free energy” value was determined as 0 kcal/mol. Then TAGAGCACGTGAATGT, with 0.18 kcal/mol; and GCGGGCACGTGGTATA, with -0.02 kcal/mol.

TAGGTCACGTGCTAGT: the “relative binding free energy” value was determined as 0.16 kcal/mol. On to TCGTGCACGTGTTTGT, for which the “relative binding free energy” value is -0.16 kcal/mol. For GTGCTCACGTGTGCTT the value was 0.31 kcal/mol; for AGTTACACGTGGTTTG, 0.03 kcal/mol.

With TCCGGCACGTGTAGGT, the “relative binding free energy” value turned out to be 0.06 kcal/mol. On to TGCGGCACGTGTTTAT, for which the “relative binding free energy” value is -0.12 kcal/mol. For TCAGTCACGTGATAGG the value was 0.21 kcal/mol; for TATGGCACGTGTAATG, 0.06 kcal/mol. For AATGGCACGTGTGATT, the “relative binding free energy” value amounted to 0.01 kcal/mol. As to GTTAACACGTGAACGT, the “relative binding free energy” value is 0.45 kcal/mol. On to ATTATCACGTGATTGA, for which the “relative binding free energy” value was 0.21 kcal/mol.

Take TAGGGCACGTGTCTGA: the “relative binding free energy” value was -0.23 kcal/mol. For TGGCTCACGTGTAATG the value was 0.3 kcal/mol; for CAATTCACGTGTGGGT, 0.33 kcal/mol; for TGGTGCACGTGAGGGT, 0.19 kcal/mol. Regarding TGGGTCACGTGAGGCT, the “relative binding free energy” value worked out at 0.42 kcal/mol.

On to TTAGACACGTGGGAGC, for which the “relative binding free energy” value was -0.05 kcal/mol.

For GGTGCCACGTGTAAGA, the “relative binding free energy” value is 0.1 kcal/mol. Take TAGGCCACGTGATTGG: the “relative binding free energy” value came out at 0.01 kcal/mol. As for TGTACCACGTGGCTGT, the “relative binding free energy” value was -0.14 kcal/mol. In the case of TTGGTCACGTGACGTT, the “relative binding free energy” value was 0.2 kcal/mol. Consider ATGGGCACGTGCCGGG, for which the “relative binding free energy” value is -0.2 kcal/mol. For the sequence AGATTCACGTGCGAGT, the “relative binding free energy” value worked out at 0.31 kcal/mol. With TAGGGCACGTGTTTAT, the “relative binding free energy” value is -0.03 kcal/mol. Turning to GGGTCCACGTGTTTTG, the “relative binding free energy” value is 0.18 kcal/mol. For TGAGTCACGTGCTCTG the value was 0.24 kcal/mol. In the case of CATGGCACGTGTGATA, the “relative binding free energy” value is -0.07 kcal/mol. For ATTGGCACGTGTAGAG the value was -0.09 kcal/mol; for TTATGCACGTGAGTGC, 0.11 kcal/mol; for GGGTTCACGTGAGAGC, 0.29 kcal/mol. Take AGTCGCACGTGAGGCA: the “relative binding free energy” value was 0.22 kcal/mol. Turning to GACTTCACGTGGCGGT, the “relative binding free energy” value came out at 0.3 kcal/mol. As for TTGTTCACGTGTCAAG, the “relative binding free energy” value stood at 0.32 kcal/mol. As for AGTGACACGTGTCGAG, the “relative binding free energy” value is 0.03 kcal/mol. As for AAGGGCACGTGTTGCA, the “relative binding free energy” value is -0.23 kcal/mol. In the case of CGATGCACGTGGTTGT, the “relative binding free energy” value was 0.01 kcal/mol. Consider TGAATCACGTGTGTAT, for which the “relative binding free energy” value is 0.13 kcal/mol. For the sequence TTTGTCACGTGCGTAA, the “relative binding free energy” value came to 0.02 kcal/mol. As to TAAAACACGTGTGTAG, the “relative binding free energy” value is -0.06 kcal/mol.

With GTAGTCACGTGCTAGG, the “relative binding free energy” value was 0.02 kcal/mol. Then GGGGGCACGTGGTGAC, with -0.26 kcal/mol; and AATGTCACGTGACTGT, with 0.11 kcal/mol.

As to GAATGCACGTGTGCGT, the “relative binding free energy” value was 0.05 kcal/mol.

For the sequence TATAGCACGTGGTTTT, the “relative binding free energy” value is -0.06 kcal/mol. On to GGCCGCACGTGGAGTG, for which the “relative binding free energy” value was 0.02 kcal/mol. As for GGTTTCACGTGCGAAT, the “relative binding free energy” value was found to be 0.29 kcal/mol. As to GTTGGCACGTGGTCAT, the “relative binding free energy” value is -0.11 kcal/mol.

Regarding GTTTGCACGTGGTTCG, the “relative binding free energy” value worked out at 0.04 kcal/mol. Regarding GGTTGCACGTGGCACT, the “relative binding free energy” value was determined as 0.01 kcal/mol. Regarding TTCGACACGTGGTGTG, the “relative binding free energy” value is -0.13 kcal/mol. With GTGTACACGTGAGATA, the “relative binding free energy” value was found to be 0.32 kcal/mol. For GTAGGCACGTGCAGGG the value was -0.06 kcal/mol; for TTGTGCACGTGAATTC, 0.35 kcal/mol; for CGAATCACGTGTTTGG, 0.22 kcal/mol.

In the case of GTTTACACGTGCAGTT, the “relative binding free energy” value was determined as 0.19 kcal/mol. Turning to TTACACACGTGTAGGG, the “relative binding free energy” value is 0.03 kcal/mol.

As for GGCTGCACGTGTCATG, the “relative binding free energy” value turned out to be 0.15 kcal/mol. With GTCAGCACGTGATTGG, the “relative binding free energy” value was found to be 0.16 kcal/mol. As to GTTTACACGTGTCATT, the “relative binding free energy” value amounted to 0.2 kcal/mol. In the case of TATAACACGTGTCGTG, the “relative binding free energy” value was -0.14 kcal/mol. On to ATTGGCACGTGGTCAG, for which the “relative binding free energy” value is -0.26 kcal/mol. On to TCTTGCACGTGTGTAG, for which the “relative binding free energy” value came to 0.08 kcal/mol. For TGTTCCACGTGCGGCG the value was 0.12 kcal/mol; for TGGAGCACGTGCTGAG, -0.2 kcal/mol; for TCAATCACGTGATGTT, 0.17 kcal/mol.
